Assay results reported in the supplement of paper PMC4967469.
Lines with a small IC50 respond at low doses; a limit (>, <) means that the fit lies beyond the doses tested. AUC, from the same fit, is the share of area under the viability curve across the 256-fold dose range; the more sensitive the line, the further below 1. An inferred top dose was calculated from the reported fits.

Compound: C=CC(=O)Nc1cccc(Nc2nc(NC3CCC(N(C)C)CC3)nc3c2ncn3C(C)C)c1 [WZ3105]
Assay: Viability of human cancer cell lines after 72 h of drug (GDSC screen)
Conditions: top dose inferred
Method: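 Human cancer cell lines in 384-well plates, medium with 10% serum, drug for 72 h over a 256-fold dose range (nine 2-fold or five 4-fold steps up to the top dose). Adherent lines were fixed and stained with the nucleic acid dye Syto60, suspension lines read with resazurin; signal relative to control wells, capped at 0 and 100%. One two-parameter sigmoid per drug and line, fitted in a mixed model over all curves with the slope shared within a line.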

Cell Line	AUC	IC50 [nM]
CCF-STTG1 (glioma, adherent, top dose 1.28 µM)	0.83	809
CCK-81 (large intestine, adherent, top dose 10.24 µM)	0.886	10100
CCRF-CEM (lymphoblastic leukaemia, suspension, top dose 1.28 µM)	0.537	99.3
CESS (acute myeloid leukaemia, suspension, top dose 1.28 µM)	0.683	239
CFPAC-1 (pancreas, adherent, top dose 1.28 µM)	0.895	> 1280
CGTH-W-1 (thyroid, adherent, top dose 1.28 µM)	0.871	1190
CHL-1 (melanoma, adherent, top dose 1.28 µM)	0.872	1100
CHP-126 (neuroblastoma, suspension, top dose 1.28 µM)	0.902	> 1280
CHP-134 (neuroblastoma, suspension, top dose 1.28 µM)	0.832	1150
CHP-212 (neuroblastoma, adherent, top dose 1.28 µM)	0.988	> 1280
CHSA0011 (chondrosarcoma, adherent, top dose 1.28 µM)	0.74	524
CHSA0108 (chondrosarcoma, adherent, top dose 1.28 µM)	0.858	> 1280
CHSA8926 (chondrosarcoma, adherent, top dose 1.28 µM)	0.857	> 1280
CL-11 (large intestine, adherent, top dose 1.28 µM)	0.987	> 1280
CMK (acute myeloid leukaemia, suspension, top dose 1.28 µM)	0.776	433
COLO-205 (large intestine, suspension, top dose 1.28 µM)	0.644	199
COLO-320-HSR (large intestine, suspension, top dose 1.28 µM)	0.991	> 1280
COLO-668 (small cell lung carcinoma, adherent, top dose 1.28 µM)	0.953	> 1280
COLO-678 (large intestine, semi-adherent, top dose 1.28 µM)	0.946	> 1280
COLO-679 (melanoma, adherent, top dose 1.28 µM)	0.859	1270
COLO-680N (oesophagus, adherent, top dose 1.28 µM)	0.875	> 1280
COLO-684 (endometrium, suspension, top dose 1.28 µM)	0.613	170
COLO-783 (melanoma, adherent, top dose 1.28 µM)	0.898	> 1280
COLO-792 (melanoma, adherent, top dose 1.28 µM)	0.91	> 1280
COLO-800 (melanoma, adherent, top dose 1.28 µM)	0.711	309
COLO-824 (breast, adherent, top dose 1.28 µM)	0.706	310

Cell Line	AUC	IC50 [nM]
COLO-829 (melanoma, adherent, top dose 1.28 µM)	0.86	> 1280
COR-L23 (large cell lung carcinoma, adherent, top dose 1.28 µM)	0.67	235
COR-L88 (small cell lung carcinoma, adherent, top dose 1.28 µM)	0.823	954
COR-L95 (small cell lung carcinoma, adherent, top dose 1.28 µM)	0.717	366
COR-L105 (lung adenocarcinoma, adherent, top dose 1.28 µM)	0.83	1060
COR-L279 (small cell lung carcinoma, suspension, top dose 1.28 µM)	0.636	181
COR-L303 (small cell lung carcinoma, suspension, top dose 1.28 µM)	0.676	244
COR-L311 (small cell lung carcinoma, suspension, top dose 1.28 µM)	0.515	88.2
COR-L321 (lung, suspension, top dose 1.28 µM)	0.702	296
CP50-MEL-B (melanoma, adherent, top dose 1.28 µM)	0.967	> 1280
CP66-MEL (melanoma, adherent, top dose 1.28 µM)	0.947	> 1280
CPC-N (small cell lung carcinoma, suspension, top dose 1.28 µM)	0.714	344
CS1 (bone, adherent, top dose 1.28 µM)	0.569	126
CTB-1 (B-cell lymphoma, suspension, top dose 1.28 µM)	0.467	63.1
CTV-1 (acute myeloid leukaemia, suspension, top dose 10.24 µM)	0.199	105
CW-2 (large intestine, adherent, top dose 10.24 µM)	0.959	> 10200
Ca9-22 (head and neck, adherent, top dose 1.28 µM)	0.805	592
Ca-Ski (cervix, adherent, top dose 1.28 µM)	0.542	106
CaR-1 (large intestine, adherent, top dose 1.28 µM)	0.836	> 1280
Calu-3 (lung adenocarcinoma, adherent, top dose 1.28 µM)	0.971	> 1280
Calu-6 (lung adenocarcinoma, adherent, top dose 10.24 µM)	0.725	3090
Caov-3 (ovary, adherent, top dose 1.28 µM)	0.866	918
Caov-4 (ovary, adherent, top dose 1.28 µM)	0.858	> 1280
Capan-2 (pancreas, adherent, top dose 1.28 µM)	0.845	1240
ChaGo-K-1 (non-small cell lung carcinoma, adherent, top dose 1.28 µM)	0.77	565
D-247MG (glioma, adherent, top dose 1.28 µM)	0.968	> 1280

Cell Line	AUC	IC50 [nM]
D-263MG (glioma, adherent, top dose 1.28 µM)	0.903	> 1280
D-283MED (medulloblastoma, adherent, top dose 1.28 µM)	0.986	> 1280
D-336MG (glioma, adherent, top dose 1.28 µM)	0.667	267
D-392MG (glioma, adherent, top dose 1.28 µM)	0.732	476
D-423MG (glioma, adherent, top dose 1.28 µM)	0.838	1150
D-502MG (glioma, adherent, top dose 1.28 µM)	0.921	> 1280
D-542MG (glioma, adherent, top dose 1.28 µM)	0.984	> 1280
D-566MG (glioma, adherent, top dose 1.28 µM)	0.779	514
DAN-G (pancreas, adherent, top dose 1.28 µM)	0.916	> 1280
DB (B-cell lymphoma, suspension, top dose 1.28 µM)	0.618	177
DBTRG-05MG (glioma, adherent, top dose 1.28 µM)	0.915	> 1280
DEL (lymphoid neoplasm, suspension, top dose 1.28 µM)	0.664	204
DG-75 (Burkitt lymphoma, suspension, top dose 1.28 µM)	0.732	370
DJM-1 (skin, adherent, top dose 1.28 µM)	0.845	912
DK-MG (glioma, adherent, top dose 1.28 µM)	0.664	287
DMS-53 (small cell lung carcinoma, adherent, top dose 1.28 µM)	0.987	> 1280
DMS-79 (small cell lung carcinoma, suspension, top dose 1.28 µM)	0.701	326
DMS-114 (small cell lung carcinoma, adherent, top dose 1.28 µM)	0.715	359
DMS-273 (small cell lung carcinoma, adherent, top dose 1.28 µM)	0.683	269
DND-41 (T-cell leukaemia, suspension, top dose 1.28 µM)	0.745	362
DOK (head and neck, adherent, top dose 1.28 µM)	0.958	> 1280
DOV13 (ovary, adherent, top dose 1.28 µM)	0.981	> 1280
DSH1 (bladder, adherent, top dose 1.28 µM)	0.697	278
DU-145 (prostate, adherent, top dose 1.28 µM)	0.947	> 1280
DU-4475 (breast, suspension, top dose 1.28 µM)	0.762	381
Daoy (medulloblastoma, adherent, top dose 1.28 µM)	0.855	877
